# Measurements as given in PubChem BioAssay AID540267 (National Center for Advancing Translational Sciences (NCATS), 2011).
# The campaign covered roughly 340,000 compounds. About 530 (0.16%) were called active. The shares of active, inactive and inconclusive entries below differ from those in the screen. Cut-off read from the data, not from the text of the source: active = activity change below about -80%; inconclusive = between about -30% and that limit; inactive = weaker than that.
# Assay: Small Molecules that selectively kill Giardia lamblia: qHTS;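 note: parasites exposed to compound for two days anaerobically before the ATP read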
# Conditions: Giardia lamblia trophozoite viability; at 7.66 µM; hits give low values
# Outline: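 Killing of trophozoites was scored by loss of ATP luminescence after a 48 hrs anaerobic exposure to compounds at 37 deg C, using 100 cells per well.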
# % is set by controls: 0 for no effect and ±100 for the full control effect.
row,SMILES,activity change
1,O=C(NC(=S)Nc1ccc(N2CCCCC2)cc1)c1ccc2c(c1)OCCO2,inactive: -22.2%
2,CC1(C)CC(=O)c2sc(NC(=O)c3cccs3)nc2C1,active: -95.7%
3,CCn1c(=O)ccc2cc([N+](=O)[O-])ccc21,inconclusive: -33.5% [inhibitor]
4,CCc1ccc(N(CC(=O)NCc2ccco2)C(=O)CCC(=O)Nc2ccccn2)cc1,inconclusive: -30.3% [inhibitor]
5,CCOC(=O)C1CCCCN1S(=O)(=O)c1cc2c(cc1C)NC(=O)CO2 (stereo not drawn),inconclusive: -31.1% [inhibitor]
6,O=C(NC1CC1)c1cc2c(F)cccc2s1,inconclusive: -34.4% [inhibitor]
7,COc1ccc(-c2nc3ccccc3[nH]2)cc1,inconclusive: -60.1% [inhibitor]
8,COc1ccc(CCNC(=O)c2cc(-c3ccccc3)c(N3CCOCC3)s2)c(OC)c1OC,inconclusive: -32.9% [inhibitor]
9,Cc1ncc(C[n+]2ccc(C)c(C)c2)c(N)n1,inconclusive: -35.4% [inhibitor]
10,Cc1cnc(C(=O)Nc2nccs2)cn1,inconclusive: -32.2% [inhibitor]
11,Cc1cc(N/N=C/c2ccc([N+](=O)[O-])o2)nc2ccccc12,active: -82.3%
12,O=S1(=O)CCC(=Nc2ccc(Cl)cc2)c2ccsc21,inconclusive: -38.8% [inhibitor]
13,Cc1scc(-c2n[nH]c(=S)n2C(C)c2ccccc2)c1C (stereo not drawn),inactive: -9.03%
14,c1c(CC2CCCC2)nnn1C[C@H]1CC[C@@H]([C@@H]2CC[C@H](Cn3cc(CC4CCCC4)nn3)O2)O1,inactive: 3.57%
15,Cn1c(SCC(=O)c2ccc(O)cc2O)nnc1-c1ccccc1,inactive: 2.15%
16,Cc1ccnc(NC(=O)c2ccccc2[N+](=O)[O-])c1,inconclusive: -31.9% [inhibitor]
17,C[C@@]12C(=O)Nc3ccc(Br)cc3C(=O)N1[C@H]1c3cc(Br)ccc3OC[C@@H]1[C@@H]2c1ccccc1,inconclusive: -39.6% [inhibitor]
18,CC(=O)c1cccc(CN(C)CC2CCCN(CCc3ccccc3C)C2)c1 (stereo not drawn),inconclusive: -33.3% [inhibitor]
19,O=C(Nc1ccccc1N1CCOCC1)c1ccc([N+](=O)[O-])s1,active: -89.4%
20,CCc1cccc(N=c2c([N+](=O)[O-])nn(-c3ccc4c(c3)OCCO4)n2O)c1,inconclusive: -77.5% [inhibitor]
21,CCc1ccc(N2CC34C=CC(O3)C(C(=O)OC(C)C)C4C2=O)cc1 (stereo not drawn),inconclusive: -31.2% [inhibitor]
22,CSCCC(NC(=O)c1ccco1)C(=O)OCc1cc([N+](=O)[O-])cc2c1OCOC2 (stereo not drawn),inconclusive: -51.3% [inhibitor]
23,O=[N+]([O-])c1ccc(Nc2ccccc2O)c2nonc12,inconclusive: -41.9% [inhibitor]
24,O=C(O)COc1ccc(/C=N/n2c(COc3ccccc3)nc3ccccc3c2=O)cc1,inactive: -2.12%
25,COc1ccc(NC(=O)c2cc3ccc(O)cc3o/c2=N\O)cc1,inconclusive: -54.7% [inhibitor]
26,COc1ccc(S(=O)(=O)N2CCc3ccccc32)cc1OC,inconclusive: -32.2% [inhibitor]

row,SMILES,activity change
1,COCCNC(=O)c1ccc(N2CCC3(CC2)OCCO3)c([N+](=O)[O-])c1,inconclusive: -32.8% [inhibitor]
2,O=C(O)CC(SCC(=O)Nc1ccc(Cl)c(S(=O)(=O)N2CCOCC2)c1)C(=O)O (stereo not drawn),inactive: -13.9%
3,CN1c2ccc(Cl)cc2C(=O)NC1c1ccc([N+](=O)[O-])s1 (stereo not drawn),inconclusive: -39.2% [inhibitor]
4,CO/N=C\CC(=O)Nc1ccc(Cl)cc1Cl,inactive: 4.68%
5,CCOc1ccc(Br)cc1S(=O)(=O)Nc1cccc(S(=O)(=O)N2CCOCC2)c1,inactive: 3.86%
6,O=C(COC(=O)CNS(=O)(=O)c1cc(C(F)(F)F)ccc1Cl)NC1CC1,inconclusive: -31.9% [inhibitor]
7,CC(C)(C)c1ccc(-c2nc3[nH]c(=O)cc(NC(=O)c4ccco4)n3n2)cc1,inconclusive: -31.2% [inhibitor]
8,CC(=O)N1CCN(c2ccc(NCc3cccc4ccccc34)cc2)CC1,inactive: 2.01%
9,O=C(Nc1ccc(C(=O)O)cc1)/C(=C\C=C\c1ccccc1)NC(=O)c1ccccc1Cl,inconclusive: -45.1% [inhibitor]
10,COc1cc2nc(CN(C)Cc3ccc(C(C)(C)C)cc3)[nH]c(=O)c2cc1OC,inconclusive: -55.6% [inhibitor]
11,Cn1cnnc1SCC(=O)c1cccc([N+](=O)[O-])c1,inconclusive: -37.7% [inhibitor]
12,O=C(CC(=O)Nc1ccccc1C(F)(F)F)Nc1ccccc1C(F)(F)F,inactive: -6.05%
13,Cc1ccc([N+](=O)[O-])cc1NC(=S)NC(=O)c1cccs1,inconclusive: -31.7% [inhibitor]
14,COc1ccc(NC(=S)N2CCc3ccccc32)cc1OC,inactive: 7.09%
15,Cc1ccc(C(C)C)c(OCC(=O)Nc2ccc3c(c2)nc(CN2CCCC2)n3C)c1,inconclusive: -37.6% [inhibitor]
16,COC(=O)c1ccc(CNCC(O)COc2ccc(-c3ccccc3)cc2)cc1 (stereo not drawn),inactive: -14.9%
17,O=C(O)CN1C(=O)/C(=C\c2cc(Br)ccc2OCc2ccccc2F)SC1=S,inconclusive: -32.4% [inhibitor]
18,CCCCN(C)CCN1C(=O)C2C(C(=O)Nc3ccc(C)cc3)C3C=CC2(O3)C1C(=O)NC1CCCCC1 (stereo not drawn),inactive: 1.36%
19,c1ccc(-c2cnc(-c3ccccn3)nn2)cc1,inconclusive: -37.9% [inhibitor]
20,O=C(O)CCC(=O)NCc1ccc2[nH]c3c(c2c1)CCCC3,inconclusive: -33.6% [inhibitor]
21,COc1ccc(CCNC(=O)Cc2ccc(C)cc2)cc1OC,inconclusive: -31% [inhibitor]
22,CCc1ccn2cc(-c3ccc4c(c3)OCO4)nc2c1,inconclusive: -64.3% [inhibitor]
23,CN(C)CCCNc1c2c(nc3cc(-c4cccc(F)c4)nn13)CCC2,inconclusive: -33.6% [inhibitor]
24,CCOc1ccc(Nc2ccc([N+](=O)[O-])c3nonc23)cc1,inconclusive: -36.2% [inhibitor]
25,Cc1cc(/C=N/n2cnnc2)c(C)n1-c1ccc2ncccc2c1,inconclusive: -30.4% [inhibitor]
26,O=c1oc(C2(O)CCCCC2)cc2ccc(-c3ccc4[nH]ccc4c3)cc12,inactive: 13.6%

row,SMILES,activity change
1,CC1CCc2nc(NC(=O)c3ccco3)sc2C1 (stereo not drawn),inconclusive: -46.5% [inhibitor]
2,CN(C(=O)c1ccco1)c1nnc(-c2ccc(F)cc2)s1,inconclusive: -34.7% [inhibitor]
3,CC(Oc1ccccc1)C(=O)Nc1nnc(S(=O)(=O)N2CCCCCC2)s1 (stereo not drawn),inconclusive: -59.6% [inhibitor]
4,Cc1nc2nc(CCNS(=O)(=O)c3ccc(Cl)cc3)cn2nc1C,inconclusive: -34.2% [inhibitor]
5,Cc1ccc(-c2cc(C(=O)N/N=C/c3ccc([N+](=O)[O-])o3)c3ccccc3n2)o1,active: -92.3%
6,Cc1cccnc1NC(=S)NC(=O)c1cccs1,inconclusive: -44.7% [inhibitor]
7,COc1ccc(-c2sc3ccccc3c2-c2ccc(OCCN3CCCCC3)cc2)cc1,inconclusive: -38.8% [inhibitor]
8,O=C(/C=C/c1ccccc1)Nc1cccc(C(=O)O)c1,inconclusive: -65.4% [inhibitor]
9,CCOP(=O)(OCC)c1cccc(P(=O)(c2ccccc2)c2ccccc2)c1O,inconclusive: -47.1% [inhibitor]
10,Cc1ccc(S(=O)(=O)CCC(=O)OCC(=O)NCCc2ccc(S(N)(=O)=O)cc2)cc1,inconclusive: -40.9% [inhibitor]
11,C=C1CCN(C(CC(C)C)C(=O)NCCCc2ccccc2)S(=O)(=O)c2ccccc21 (stereo not drawn),inactive: -18.4%
12,Cc1cccc(C(=O)NNC(=O)c2ccccc2Br)c1,inconclusive: -43.2% [inhibitor]
13,COc1ccc(C(=O)c2c3ccc([N+](=O)[O-])cc3[n+]([O-])n2CCCC(N)=O)cc1,inconclusive: -58.2% [inhibitor]
14,Cc1cccc2cc3c(nc12)SC(=NCC1CCCO1)N(Cc1ccco1)C3 (stereo not drawn),inactive: -20.4%
15,CC(C)NS(=O)(=O)c1ccc(NC(=O)Cc2ccsc2)cc1,inconclusive: -36.3% [inhibitor]
16,O=C(Nc1ccc(Cl)cc1C(F)(F)F)C(Sc1cccc[n+]1[O-])c1ccccc1 (stereo not drawn),inconclusive: -33.8% [inhibitor]
17,O=C(NCc1cccc(F)c1)c1cccc2c1C(=O)c1ccc(N3CCOCC3)cc1S2(=O)=O,inconclusive: -36.2% [inhibitor]
18,O=C(NNC(=O)C1[C@H]2CCCC[C@@H]12)Nc1cccc2ccccc12 (stereo partly drawn),inactive: 17.1%
19,CNC(=S)N/N=C/c1ccc(-c2ccc(C(=O)O)cc2)o1,inactive: -22.6%
20,Cc1ccc(NC(=S)N2CCN(c3ccccc3F)CC2)c(C)c1,inactive: 24.6%
21,CC1CCN(CCCCOc2ccccc2F)CC1,inconclusive: -31.8% [inhibitor]
22,c1ccc(-c2ncc3c(ccc4ccccc43)n2)cc1,inconclusive: -49.7% [inhibitor]
23,CC(=O)N1c2ccc(S(=O)(=O)N(C)Cc3ccccc3)cc2CC1C (stereo not drawn),inconclusive: -30.1% [inhibitor]
24,Nc1c(C(=O)NCc2ccco2)nnn1CC(=O)Nc1ccccc1,inactive: 5.96%
25,O=C(NC1CCCC1)c1ccc([N+](=O)[O-])s1,inconclusive: -41.1% [inhibitor]
26,O=C(COC(=O)c1ccc(F)cc1)NCC1CCCCC1,inconclusive: -42.4% [inhibitor]
